PubChem BioAssay AID686971 (National Center for Advancing Translational Sciences (NCATS), 2013)
Hit rate of the full screen: of about 360,000 compounds, about 7,500 (2.1%) were called active. The shares of active, inactive and inconclusive entries below differ from those in the screen. Calls follow the shape of the dose curve; as a rule, active = well fitted cell-killing curve with a large enough effect; inconclusive = small, poorly fitted or top-dose-only effect, or effect the other way, or another doubt; inactive = no such curve, though single readings can be large or run the other way. No potency is given beside an inconclusive call; the fits are too rough.

Assay: qHTS for induction of synthetic lethality in tumor cells producing 2HG: qHTS for the HT-1080-IDH1KD cell line;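 as to activity, negative = toxicity: 0% = DMSO wells and -100% = cell-free medium wells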
Conditions: HT-1080 IDH1 knockdown viability, ATP luminescence, 48 h; activity, negative = toxicity: at 46.1 µM (top of the series) unless noted
Procedure, shortened: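 Viability of IDH1-knockdown HT-1080 fibrosarcoma cells was assessed by CellTiter-Glo after 48 h at 37 °C with titrated compound; concentration-effect curves were classified by fit quality and response size.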
Potency is read from the fitted curve at half-maximal effect; tags tell the direction and shape of the fitted curve.

SMILES | Potency | activity, negative = toxicity
COc1ccc(/C=C2/C(=O)OCc3cc(OC)c(OC)cc32)cc1 | active: 2.31 µM | 
CSCCC(NS(=O)(=O)c1ccc2c(c1)OCCO2)C(=O)N(C)Cc1ccc(C)cc1 (stereo not drawn) | inactive | 
Cc1cccc(OCCOc2ccccc2C=C(C#N)C#N)c1 | inconclusive [cytotoxic, single point] | 
COc1ccc(N2CCN(CCNC(=O)C3CCN(S(=O)(=O)c4cccs4)CC3)CC2)cc1 | inactive | 
CCOC(=O)c1cn(Cc2ccccc2)nc1-c1ccccc1 | inactive | 
CCN1CCc2c(sc(NC(=O)c3ccc(S(=O)(=O)N4CCCC4)cc3)c2C(=O)NC)C1 | inconclusive [cytotoxic, single point] | 
Cc1onc(-c2ccccc2)c1C(=O)Nc1nc(-c2ccc(F)c(F)c2)cs1 | inconclusive [cytotoxic, single point] | 
CCOC(=O)C(=Cc1ccc(N(C)C)cc1)C(=O)c1ccccc1 | inconclusive [cytotoxic, single point] | 
CCN(CC(=O)NCc1ccc(F)cc1)c1ccc(S(C)(=O)=O)cc1[N+](=O)[O-] | inactive | 
O=S(=O)(CCS(=O)(=O)c1ccccc1)c1ccccc1 | inconclusive [cytotoxic, full curve, poor fit] | 
N#Cc1ccc(-c2ccc(OCC(O)Cn3nnc4ccccc43)cc2)cc1 (stereo not drawn) | inconclusive [cytotoxic, single point] | 
C[C@H](CO)N1C[C@H](C)[C@@H](CN(C)Cc2ccncc2)Oc2c(NS(=O)(=O)c3ccc(Cl)cc3)cccc2C1=O | inconclusive [cytotoxic, single point] | 
COC(=O)C1=C(C)NC2=C(C(=O)CCC2)C1c1cn(Cc2ccc(Cl)cc2Cl)nc1-c1ccccc1 (stereo not drawn) | inconclusive [cytotoxic, single point] | 
CCN(CC(=O)Nc1c(F)cccc1F)C(=O)c1ccc2c(c1)NC(=O)C(C)S2 (stereo not drawn) | inconclusive [rising, single point] | 
CCn1c(SCC(=O)c2ccc(OC)cc2)nnc1C1CC1 | inconclusive [rising, single point] | 
CCC[n+]1c(C)sc2c3c(ccc21)CCCC3 | inconclusive [cytotoxic, single point] | 
COC(=O)c1cnc(Nc2nc(C(N)c3ccccc3Cl)cs2)nc1C(F)(F)F (stereo not drawn) | inconclusive [cytotoxic, single point] | 
COc1c(OC(C)=O)ccc(/C=C/c2ccc3cccc(OC)c3n2)c1[N+](=O)[O-] | inconclusive [cytotoxic, single point] | 
O=C(O)CSc1ccc2nnc(-c3cccnc3)n2n1 | inactive | 
Cc1cccc(N2C(=O)CS/C2=N\NC(=O)c2ccc(Br)cc2)c1C |  | inconclusive: 31%
CC(C)(C)S(=O)N1Cc2cc(C(=O)NCc3ccc(Oc4ccccc4)cc3)nc(-c3cccc(-c4cc5ccccc5o4)c3)c2[C@H]1CCO (stereo partly drawn) | active: 18.4 µM | 
Cc1nnn(-c2nonc2N)c1C(=O)N/N=C/c1ccccc1O | active: 8.2 µM | 
COc1cccc(-c2nc(NC(C)(C)C)c3ccccc3n2)c1O | inconclusive [cytotoxic, single point] | 

SMILES | Potency | activity, negative = toxicity
Cc1ccc(C(=O)OCc2cn(-c3ccccc3)nn2)cc1 | inconclusive [rising, single point] | 
NC(COCc1ccccc1)c1csc(Nc2ccc(C(=O)c3ccccc3)cc2)n1 (stereo not drawn) |  | inconclusive: -31.4% [cytotoxic]
CCOC(=O)C1=C(C)OC(=Cc2ccccc2)C1=O | inactive | 
COC(=O)c1ccc2nc(-c3ccco3)c(Cc3cccc(F)c3)n2c1 | inconclusive [cytotoxic, single point] | 
COc1ccc(CN2CC(=O)N(c3cc(Cl)ccc3C)C2=S)cc1OC | inactive | 
COc1cc2c(C)nc3onc(-c4ccccc4)c3c2cc1OC | inconclusive [cytotoxic, partial curve] | 
CSc1nc2ccc(Nc3nc(N4CCOCC4)nc(N4CCOCC4)n3)cc2s1 |  | inconclusive: -34.2% [cytotoxic]
Cc1ccc(NC(=S)N/N=C2\CC(C)(C)Oc3ccc(O)cc32)cc1 | inactive | 
Cc1ccc2[nH]c(C(=O)NN=C3CCCCC3)c(-c3ccccc3)c2c1 | inconclusive [cytotoxic, partial curve, poor fit] | 
CCOC(=O)C1(Cc2cccc(OC)c2)CCN(Cc2cc(OC)ccc2OC)CC1 | inconclusive [cytotoxic, single point] | 
COc1cc(OC)cc(C(=O)N[C@H](C(=O)Nc2nc3c(s2)CCCC3)C(C)C)c1 |  | inconclusive: -32.2% [cytotoxic]
O=[N+]([O-])c1cc(CN2CCN(c3cccc(C(F)(F)F)c3)CC2)c2cccnc2c1O | inconclusive [cytotoxic, partial curve] | 
O=C(/C=C/c1ccccc1)Nc1cccc(C(=O)NCCc2ccccc2)c1 | inconclusive [cytotoxic, single point] | 
C[C@H](O)[C@@H]1CN2CCc3c([nH]c4ccc(-c5ccc6c(c5)OCO6)cc34)[C@@H]2C[C@@H]1N(C)C(=O)Nc1cc(Cl)cc(Cl)c1 | active: 7.31 µM | 
Cc1ccc2nc(C3CCCCC3)c(Cc3ccccc3)n2c1 | inconclusive [cytotoxic, single point] | 
CCC1CCCCN1C(=O)c1cccc(S(=O)(=O)Nc2cc(C(F)(F)F)ccc2Cl)c1 (stereo not drawn) | inconclusive [cytotoxic, single point] | 
Cc1cc2nc(C3CCN(CC4COc5ccccc5O4)CC3)[nH]c2cc1C (stereo not drawn) | inconclusive [cytotoxic, single point] | 
C=CC[n+]1c(-c2ccc(Cl)cc2Cl)csc1Nc1c(C)n(C)n(-c2ccccc2)c1=O | active: 14.6 µM | 
Cc1c(/C=N/NC(N)=O)c2ccccn2c1C(=O)c1ccncc1 | inconclusive [cytotoxic, single point] | 
Cn1cc(C(=O)c2ccc(Cl)cc2Cl)cc1C(=O)N/N=C(\N)COc1ccc(F)cc1 | inconclusive [cytotoxic, single point] | 
CC(=O)c1sc(N/N=C\c2c(O)ccc3ccccc23)nc1C | inactive | 
Cc1ccc(C2CC(c3cccc(Br)c3)Nc3nnnn32)cc1 (stereo not drawn) | inconclusive [cytotoxic, single point] | 
CCOc1ccc(/C=N/NC(=O)COc2ccccc2-c2ccccc2)cc1 | inconclusive [cytotoxic, single point] | 

SMILES | Potency | activity, negative = toxicity
CN(CC(=O)NC(c1ccccc1)c1ccccc1)Cc1nc2ccccc2c(=O)[nH]1 | inactive | 
COc1ccc(C(=O)NNC(=O)c2cc3ccccc3cc2O)cc1 | inactive | 
O=C(O)c1ccccc1NS(=O)(=O)c1cccc(-n2sc3ccccc3c2=O)c1 | inconclusive [cytotoxic, single point] | 
N#C/C(=C/c1ccc(N2CCCCC2)o1)c1cccc(F)c1 | active: 3.98 µM | 
O=CN/N=C/c1c(O)ccc2ccccc12 | inconclusive [cytotoxic, partial curve] | 
Brc1ccc2nc(C3CCCCC3)c(Cc3ccccc3)n2c1 | inconclusive [cytotoxic, single point] | 
COc1cc(OC)nc(C(NC(=O)C2CCN(Cc3ccc(Oc4ccccc4)cc3)CC2)c2ccccc2C)n1 (stereo not drawn) | inconclusive [cytotoxic, single point] | 
CC(C)Cc1ccc(-c2cc3nc(NCCc4ccc(S(N)(=O)=O)cc4)ccn3n2)cc1 | active: 23.1 µM | 
C=CCc1cccc(CNc2nc3ccccc3n2CC)c1O | inconclusive [cytotoxic, single point] | 
NNC(=O)c1cc(C2CC2)nc2ccc(Br)cc12 | inconclusive [cytotoxic, single point] | 
COc1cccc(-c2ncn(CCc3ccccc3OC)c2C(C)C)c1 | active: 14.6 µM | 
ClCc1cc2ccccc2nc1Cl | inactive | 
O=C(O)c1ccc(CN2C(=O)c3ccc(Oc4ccc([N+](=O)[O-])cc4)cc3C2=O)cc1 | inactive | 
CCc1ccc(C2=Nn3c(nnc3-c3cccs3)SC2)cc1 | inconclusive [cytotoxic, single point] | 
CN(C)S(=O)(=O)c1ccc(C(=O)NCCS(=O)(=O)N2CCN(c3ccc(F)cc3)CC2)cc1 | inconclusive [cytotoxic, partial curve] | 
CNC1=C(N(C(C)=O)c2ccc(Br)cc2)C(=O)c2ccccc2C1=O | active: 1.84 µM | 
COc1ccccc1Nc1cc(C)nc(Nc2ccccc2OC)n1 | inactive | 
CCCCCCN1CCN(C2CN(Cc3cn(Cc4cc(C)cc(C)c4)nn3)S(=O)(=O)C2)CC1 (stereo not drawn) | inconclusive [cytotoxic, single point] | 
CN(C)c1ccc(-c2csc(C(C)(O)c3ccc(F)c(F)c3)n2)cc1 (stereo not drawn) | inconclusive [cytotoxic, single point] | 
Cc1cccc2c(=O)c(C(=O)NCCc3ccccc3)c[nH]c12 | inconclusive [cytotoxic, single point] | 
O=C(c1ccc(C(F)(F)F)cc1)N1CCC(=O)N([C@H](COCc2ccc(C(F)(F)F)cc2)Cc2ccccc2)CC1 | inconclusive [cytotoxic, single point] | 
Cc1ccc(S(=O)(=O)N2CCCCC2)cc1C(=O)Nc1ccc(N2CCOCC2)cc1 | inconclusive [cytotoxic, partial curve] | 
